Measured values published in PubChem BioAssay AID1346428 (National Center for Advancing Translational Sciences (NCATS), 2018).
“And” between values parts separate entries of the source, which are not always exact repeats. Equal values may be shown once. Among all 48,000 compounds or so, about 1,200 (2.5%) were called active. Another 2% or so got no clear call; they are omitted.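 Rule for the calls: active = activation of at least 60% and not above a set upper limit (about 1 call in 100 departs from these limits); inconclusive = activation of 40% to 60%, or above that upper limit; inactive = activation under 40%.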 This is one part of the list.

Target: Probable G-protein coupled receptor 32 (Homo sapiens) (UniProt O75388)
Experiment: qHTS for Agonists of Human Resolvin D1 Receptor DRV1; note: 0% is about no effect
Conditions: CHO-K1 GPR32 beta-arrestin PathHunter luminescence, 90 min; at 76.9 µM; active compounds read high; zero percent set by DMSO-only wells
Outline: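 Luminescent readout of beta-Gal complementation quantifies ligand-induced beta-arrestin association with GPR32 in CHO-K1 cells; 90 min compound incubation at 37 °C, detection 1 h at room temperature.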

Chain of UniProt O75388 (O75388 whole entry, looked up): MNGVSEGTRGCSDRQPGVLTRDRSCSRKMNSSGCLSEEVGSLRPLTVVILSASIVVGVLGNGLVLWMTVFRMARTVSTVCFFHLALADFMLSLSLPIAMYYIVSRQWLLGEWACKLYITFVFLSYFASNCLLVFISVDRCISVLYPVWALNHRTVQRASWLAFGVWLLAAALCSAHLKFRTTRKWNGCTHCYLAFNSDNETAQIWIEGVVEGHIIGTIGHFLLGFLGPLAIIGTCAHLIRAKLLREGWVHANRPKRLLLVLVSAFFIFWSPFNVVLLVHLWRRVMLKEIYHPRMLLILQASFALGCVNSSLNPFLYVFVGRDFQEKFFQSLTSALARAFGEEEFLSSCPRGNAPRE

**Q.** For `COc1cc(Cl)c(C)cc1NC(=O)CNC(=O)Cn1ccc2ccccc2c1=O`, which activation is on record?
**A.** The activation was inactive: 2.83%.

**Q.** Which activation does the source give for `COc1ccc(Cl)cc1NC(=O)c1ccc(CN2C(=O)CCn3nc(C)cc32)cc1` here?
**A.** Its activation is inactive: 16.8%.

**Q.** For `Cc1ccc(NC(=O)Cc2ccc(NC(=O)N3CCCCc4ccccc43)cc2)cc1Cl`, which activation is on record?
**A.** The activation was inactive: -24%.

**Q.** With `O=C(O)/C=C/c1ccc(O)c(O)c1` as the compound, how does the activation read?
**A.** The activation was inactive: 0.615%.

**Q.** With `CCN(CC)c1ccc(NC(=O)Cn2ncc3c(C)n(Cc4ccccc4F)c(C)c3c2=O)c(C)c1` as the compound, how does the activation read?
**A.** The activation was inactive: -2.79%.

**Q.** `COc1ccc(/C=C/C(=O)Nc2ccc(C)cc2)cc1` was tested. Which activation did it give?
**A.** Its activation is inactive: -9.43%.

**Q.** For `COc1cccc(-c2nc(S(=O)(=O)c3ccc(C)cc3)c(N3CCCCCC3)o2)c1`, which activation is on record?
**A.** The activation was inactive: -5.71%.

**Q.** How did the activation turn out when `CCOC(=O)c1ccc(N2C(=O)c3n[nH]c(-c4ccco4)c3C2c2ccc(OC)cc2OC)cc1` (stereo not drawn) was run?
**A.** Its activation is inactive: -7.58%.

**Q.** With `Cc1cccc(C)c1-n1ncc(C(=O)NCCCN2CCCCC2)c1C1CCN(C(=O)OC(C)(C)C)CC1` as the compound, how does the activation read?
**A.** The activation was inactive: -13.4%.

**Q.** How did the activation turn out when `CCCCOc1ccc(C(=O)NCC(c2ccc(Cl)cc2)N2CCOCC2)cc1` (stereo not drawn) was run?
**A.** Its activation is inactive: -17.4%.

**Q.** `O=C(Nc1ccc(Oc2ccccc2)cc1)c1ccc(F)c(S(=O)(=O)N2CCN(c3cccc(Cl)c3)CC2)c1` was tested. Which activation did it give?
**A.** The activation was inactive: 4.95%.

**Q.** With `COC(=O)c1nnn(-c2cccc(C)c2)c1N` as the compound, how does the activation read?
**A.** Its activation is inactive: 0.316%.

**Q.** For `CCOC(=O)c1ccc(NC(=O)CN(Cc2ccc(C)cc2)S(=O)(=O)c2ccc(C)cc2)cc1`, which activation is on record?
**A.** Its activation is inactive: -11.4%.

**Q.** How did the activation turn out when `CC(C)Oc1ccc(CNC(=O)CN2C(=O)CCn3nc(-c4cn(C)c5ccccc45)cc32)cc1` was run?
**A.** Its activation is inactive: 13.6%.

**Q.** Which activation does the source give for `COc1ccc(-n2c(SCc3nc(-c4ccc(C)cc4)no3)nnc2-c2ccccc2)cc1` here?
**A.** Its activation is inactive: -17.2%.

**Q.** How did the activation turn out when `Fc1ccccc1N1CCN(Cc2nnc(-c3ccc4c(c3)OCO4)o2)CC1` was run?
**A.** Its activation is inactive: 10.5%.

**Q.** For `COC(=O)c1ccc(NC(=O)CSc2n[nH]c(-c3ccccc3)n2)cc1`, which activation is on record?
**A.** Its activation is inactive: -6.95%.

**Q.** For `CC1CN(C(=O)Nc2ccc(C(=O)NCc3ccccc3F)cc2)c2ccccc2S1` (stereo not drawn), which activation is on record?
**A.** Its activation is inactive: -15.1%.

**Q.** Which activation does the source give for `Cc1ccccc1OCC(=O)Nc1ccc2oc(-c3ccc(F)cc3)nc2c1` here?
**A.** The activation was inactive: 1.36%.

**Q.** `O=C(Nc1nc2c(Cl)cccc2s1)c1ccc(S(=O)(=O)N2CCc3ccccc32)cc1` was tested. Which activation did it give?
**A.** The activation was inactive: -18.2%.

**Q.** Which activation does the source give for `Cc1ccc(C)c(N2C(=O)N(Cc3ccccc3C)c3ccccc3S2(=O)=O)c1` here?
**A.** The activation was inactive: -8.85%.

**Q.** With `Clc1ccc(Cn2c(CN3CCCC3)nc3ccccc32)cc1` as the compound, how does the activation read?
**A.** The activation was inactive: -72.2% and inactive: -7.35%.

**Q.** How did the activation turn out when `CCN(CCCNC(=O)CSc1cc(=O)n(CC)c2ccccc12)c1ccccc1` was run?
**A.** The activation was active: 117%.

**Q.** `CCc1ccc(CNC(=O)Cn2ccc3cc(S(=O)(=O)N4CCCCCC4)ccc32)cc1` was tested. Which activation did it give?
**A.** Its activation is inactive: 36.1%.

**Q.** `Oc1ccc2ccccc2c1SSc1c(O)ccc2ccccc12` was tested. Which activation did it give?
**A.** Its activation is inactive: 50%.

**Q.** How did the activation turn out when `O=C(NC1CCCC1)c1ccc2c(=O)n(Cc3ccccc3)c(SCc3ccc([N+](=O)[O-])cc3)nc2c1` was run?
**A.** Its activation is inactive: -12.2%.

**Q.** `CCOC(=O)N1CCN(Cc2nc3cc(NC(=O)CC)ccc3n2C(C)C)CC1` was tested. Which activation did it give?
**A.** Its activation is inactive: 3.86%.

**Q.** With `COc1ccc(OC)c2sc(N(Cc3cccnc3)C(C)=O)nc12` as the compound, how does the activation read?
**A.** Its activation is inactive: -16.8%.

**Q.** `COc1cccc(CNC(=O)CN2C(=O)CCc3cc(S(=O)(=O)N4CCOCC4)ccc32)c1` was tested. Which activation did it give?
**A.** Its activation is inactive: 0%.

**Q.** `CCc1ccc(-n2nc(CO)c(C(=O)NC(C)c3ccc(Cl)cc3)n2)cc1` (stereo not drawn) was tested. Which activation did it give?
**A.** Its activation is inactive: -12.2%.

**Q.** For `Cc1ccc(Sc2ccc(N3CCCC(C(=O)Nc4ccc(Br)cc4)C3)nn2)cc1` (stereo not drawn), which activation is on record?
**A.** Its activation is inactive: 16.3%.

**Q.** Which activation does the source give for `O=C(NCCc1ccc(Cl)cc1)c1cc(-c2ccccc2)n[nH]1` here?
**A.** The activation was inactive: 20.4%.

**Q.** How did the activation turn out when `COc1ccc(SCc2cc(=O)c3ccc(C)c(C)c3[nH]2)cc1` was run?
**A.** The activation was inactive: -10.2%.

**Q.** Which activation does the source give for `Cc1nc2ccn(Cc3cccnc3)c(=O)c2cc1C(=O)N1CCN(c2ccccc2F)CC1` here?
**A.** Its activation is inactive: -4.79%.

**Q.** How did the activation turn out when `Cc1c(C)n(Cc2ccccc2)c2ccc(C(=O)N3CCN(c4ccccc4F)CC3)cc12` was run?
**A.** The activation was inactive: -36.3%.

**Q.** For `COc1ccc2c(c1)Cc1sc(NC(=O)c3ccccc3C)nc1-2`, which activation is on record?
**A.** Its activation is inactive: -5.97%.

**Q.** For `Cc1ccc(C)c(N2CCN(c3nc4ccccc4c(=O)n3-c3ccc(Cl)cc3)CC2)c1`, which activation is on record?
**A.** The activation was inactive: -14%.

**Q.** Which activation does the source give for `CCOc1ccc(-c2nnc(SCC(=O)NC3CCCCC3)nc2-c2ccc(OCC)cc2)cc1` here?
**A.** Its activation is inactive: -13.9%.

**Q.** With `COc1ccc(C2=C(C)C(N3CCC(C(=O)NCc4ccc(C)o4)CC3)=NS2(=O)=O)cc1` as the compound, how does the activation read?
**A.** Its activation is inactive: -0.159%.

**Q.** How did the activation turn out when `COc1cccc(CNC(=O)c2ccc(-c3nc(CS(=O)c4ccccc4)c(C)o3)cc2)c1` (stereo not drawn) was run?
**A.** Its activation is inactive: -13.6%.

**Q.** With `COc1cc2nc(N(C)CCCNC(=O)C3CCCO3)nc(N)c2cc1OC` (stereo not drawn) as the compound, how does the activation read?
**A.** Its activation is inactive: 15.5% and inactive: 1.79%.

**Q.** Which activation does the source give for `COc1ccc(NC(=O)Cn2cnc3ccc(S(=O)(=O)N4CCC(C)CC4)cc3c2=O)c(OC)c1` here?
**A.** Its activation is inactive: -4.84%.

**Q.** `COc1ccc(Nc2nc3ccccc3nc2NS(=O)(=O)c2ccc(C)cc2)c(OC)c1` was tested. Which activation did it give?
**A.** Its activation is inactive: -9.23%.

**Q.** `CCOC(=O)c1cc(-c2ccccc2)n(CCC(=O)NCc2ccccc2Cl)c1C` was tested. Which activation did it give?
**A.** The activation was inactive: -33.6%.

**Q.** `COC(=O)c1sc2cccc(F)c2c1S(=O)(=O)N1CCN(c2cccc(OC)c2)CC1` was tested. Which activation did it give?
**A.** The activation was inactive: -9.1%.

**Q.** How did the activation turn out when `COc1cccc2cc(S(=O)(=O)c3ccc(F)c(C)c3)c(=O)oc12` was run?
**A.** Its activation is inactive: -1.55%.

**Q.** For `O=C(COc1ccccc1F)OCc1cc(=O)n2nc(C3CCCCC3)sc2n1`, which activation is on record?
**A.** Its activation is inactive: -11.9%.

**Q.** For `CCN(CC)c1cc(C)c2cc(NC(=O)c3cccc(OC)c3OC)ccc2n1`, which activation is on record?
**A.** The activation was active: 94.8%.

**Q.** Which activation does the source give for `O=C1Nc2ccccc2Oc2cc(Oc3cccc(Cl)c3)ccc21` here?
**A.** Its activation is active: 91.3%.

**Q.** How did the activation turn out when `CCCCN(C)CCNC(=O)C1CCCN(S(=O)(=O)c2cccc3nsnc23)C1` (stereo not drawn) was run?
**A.** The activation was inactive: -3.3%.

**Q.** For `Cc1nnc(N2CCCC(C(=O)NCc3ccccc3)C2)c2nn(-c3ccccc3)c(C)c12` (stereo not drawn), which activation is on record?
**A.** Its activation is inactive: 2.61%.

**Q.** For `Cc1c(Cl)cccc1-c1ccc(CNCCCSc2nnnn2C)o1`, which activation is on record?
**A.** The activation was inactive: -8.92%.

**Q.** Which activation does the source give for `CCc1ccc(S(=O)(=O)c2cn(C)c3cc(N4CCOCC4)c(F)cc3c2=O)cc1` here?
**A.** Its activation is inactive: -8.24%.
